Assay results as given in PubChem BioAssay AID1466 (National Center for Advancing Translational Sciences (NCATS), 2008).
Among all 200,000 compounds or so, about 10 (0.005%) were called active. Inconclusive means that the source gave no clear call. Such entries were picked first, then a sample of the others. Calls come from the whole dose curve; as a rule, active = well fitted inhibition curve with a large enough effect; inconclusive = small, poorly fitted or top-dose-only effect, or effect the other way, or another doubt; inactive = no such curve, though single readings can be large or run the other way. No potency is given beside an inconclusive call; the fits are too rough.

The compounds below were run against Lysosomal alpha-glucosidase (Homo sapiens) (UniProt P10253) (assay: qHTS Assay for Inhibitors of Human alpha-Glucosidase as a Potential Chaperone Treatment of Pompe Disease). Details: purified human GAA, 4-MU-alpha-glucoside fluorescence; activity change, negative = inhibition: at 76.9 µM (top of the series) unless noted.
Summary of the method: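 Enzyme (4 nM final) mixed with compound (up to 77 uM), then 4-MU-alpha-D-pyranoside (400 uM final) added; 20 min at room temperature, pH 5.0. Reaction stopped at pH 10, fluorescence read, AC50 derived by Hill fit.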
Potency is the fitted concentration of half-maximal effect; tags give direction and shape of the fitted curve.
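Throughout, for activity change, negative = inhibition: plate controls were uninhibited enzyme wells for no effect and no-enzyme background for full effect.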

Structure (SMILES)	Potency	activity change, negative = inhibition
O=C1CCCC2=C1C(c1ccc(O)cc1)c1c(ccc3ccccc13)N2 (stereo not drawn)	inconclusive [activator, partial curve]	
CCc1nc(SCC(=O)N2CCC(C)CC2)c2c(=O)n(C)c(=O)n(C)c2n1	inconclusive [inhibitor, full curve, poor fit]	
CC1(C)Cc2ccccc2C2=C(C(=O)N3CCCCCC3)C(=O)C(=O)N21	inactive	
CCCOc1cccc(C(=O)Nc2cccc(NC(=O)c3ccco3)c2)c1	inconclusive [inhibitor, single point]	
Cc1ccc(S(=O)(=O)CCC(=O)OCc2ccc(Cl)cc2)cc1	inconclusive [inhibitor, single point]	
CCCCNC(=S)Nc1ccc(-c2nc3ccc(C)cc3s2)cc1	inconclusive [activator, partial curve]	
Nc1cccc([N+](=O)[O-])c1		inconclusive: -16.2% [inhibitor]
Cc1cc(C)nc(NC(=O)NS(=O)(=O)N2CCCCCC2)n1	inconclusive [inhibitor, partial curve, poor fit]	
COc1cccc(Cn2cc(N)cn2)c1		inconclusive: 13.2% [activator]
CC(=O)NNC(=O)c1cc2sccc2s1	inconclusive [inhibitor, single point]	
N#C/C(=C1/CCCCCN1)c1nc2ccccc2[nH]1	inconclusive [inhibitor, full curve, poor fit]	
Cc1cc(C(F)(F)F)n(-c2nc(C(=O)O)cs2)n1	inconclusive [inhibitor, single point]	
O=C(Cc1cccs1)N1CCN(S(=O)(=O)c2ccccc2)CC1		inconclusive: -17.5% [inhibitor]
CN(C)S(=O)(=O)c1cccc(-c2nnc(SCc3ccc4c(c3)OCCO4)o2)c1	inconclusive [inhibitor, single point]	
COc1ccc(-c2cc(C(F)F)n3ncc(C(=O)NCCCN4CCCC4=O)c3n2)cc1	inconclusive [activator, single point]	
CO/C=C/C#CC1(O)CCN(C)CC1	inconclusive [inhibitor, single point]	
CCc1cccc2c(C(=O)C(F)(F)F)cn(CC(=O)NCC3CCCO3)c12 (stereo not drawn)		inconclusive: 18.2% [activator]
CCC(=O)Oc1ccc(C(=O)Nc2cccc(C(=O)NCC(C)C)c2)cc1	inconclusive [inhibitor, single point]	
Cc1ccc(-c2cc(C(F)F)n3ncc(C(=O)N4CCCc5ccccc54)c3n2)cc1	inconclusive [inhibitor, single point]	
CCNc1nc(NCC)nc(N(C)N)n1	inactive	
COc1ccc(-c2noc(CN(C)CCC3CCCCO3)n2)cc1 (stereo not drawn)	inconclusive [activator, full curve, poor fit]	

Structure (SMILES)	Potency	activity change, negative = inhibition
CC1(C)Cc2ccccc2-c2nc(NCCO)n(-c3ccccc3)c(=O)c21	inconclusive [activator, single point]	
COc1ccc(C2Nc3ccccc3C(=O)N2Cc2ccco2)cc1CN1C(=O)c2ccccc2C1=O (stereo not drawn)		inconclusive: -15.7% [inhibitor]
CCCCn1c(NS(=O)(=O)c2ccc(C)cc2)c(S(=O)(=O)c2ccccc2)c2nc3ccccc3nc21	inconclusive [activator, partial curve]	
Cc1nc(-c2ccccc2)sc1C(=O)CSc1ccc(F)cc1		inconclusive: -16.6% [inhibitor]
COc1ccc(/C=C/c2nnc(NC(=O)COc3cccc(C)c3)s2)cc1	inconclusive [activator, partial curve]	
CC1CCN(Cc2c(O)ccc3c2O/C(=C\c2ccco2)C3=O)CC1	inconclusive [inhibitor, single point]	
Cc1cc(C)cc(-n2c(C)cc(/C=N/NC(=O)c3ccncc3)c2C)c1	inconclusive [activator, single point]	
O=C(CCCn1c(=S)[nH]c2cc3c(cc2c1=O)OCO3)N1CCN(c2ncccn2)CC1	inconclusive [inhibitor, single point]	
CN(C)c1c2ccccc2nc2c(F)c(F)c(F)c(F)c12	inconclusive [activator, partial curve]	
NC(=O)c1cc2ccc(O)cc2oc1=Nc1ccccc1	inconclusive [activator, partial curve]	
CC1CC(C)CN(C(=O)COC(=O)c2ccc[nH]c2=O)C1 (stereo not drawn)	inconclusive [inhibitor, single point]	
Cc1cc(N2CCCC2)nc2c(C)cccc12	inconclusive [activator, single point]	
CCC1CCCCN1CCCNC(=O)c1ccc2c(=O)n(Cc3ccc(OC)cc3)c(=O)[nH]c2c1 (stereo not drawn)	inconclusive [activator, single point]	
NC(=O)N/N=C/c1coc2ccc3ccccc3c2c1=O	inconclusive [inhibitor, single point]	
COC(=O)c1ccccc1NC(=O)c1cnn2c(C(F)F)cc(C3CC3)nc12	inconclusive [activator, partial curve]	
O=C(CCc1ccc(S(=O)(=O)N2CCOCC2)cc1)N/N=C/c1ccc(F)cc1F		inconclusive: -20.8% [inhibitor]
Cc1cc(=O)oc2cc(OC(=O)c3cncc(Br)c3)ccc12	inconclusive [activator, partial curve]	
CCCC(=O)c1ccc(N2CCC(C)CC2)c(F)c1	inconclusive [inhibitor, full curve, poor fit]	
CCCS(=O)(=O)c1nc(S(=O)(=O)c2ccc(C)cc2)c(NCCCN2CCOCC2)s1	inconclusive [inhibitor, partial curve]	
COc1ccc(NC(=O)COC(=O)c2c(-c3ccccc3)noc2C)cc1	inconclusive [inhibitor, single point]	
CCCCn1c(N)c(N(CC)C(=O)c2ccc3c(c2)S(=O)(=O)c2ccccc2C3=O)c(=O)[nH]c1=O	inconclusive [activator, single point]	

Structure (SMILES)	Potency	activity change, negative = inhibition
COc1ccc(C(=O)NCC(=O)NC2=NCCS2)cc1	inconclusive [inhibitor, single point]	
CCOc1ccccc1NC(=O)Nc1cccc(S(N)(=O)=O)c1	inconclusive [inhibitor, single point]	
O=C1CN(C(=O)COC(=O)CCSc2ccccc2Cl)c2ccccc2N1		inconclusive: -16.6% [inhibitor]
COc1ccc2c3c(cccc13)N(C)N=C2C	inconclusive [inhibitor, partial curve, poor fit]	
COCCCn1c(-c2ccc(OC)cc2)nc2nc3ccccc3nc21	inconclusive [activator, single point]	
CCN1CCN(C(c2cccs2)C(C)NC(=O)c2ccccc2F)CC1 (stereo not drawn)	inconclusive [inhibitor, full curve, poor fit]	
O=c1o[nH]c(-c2ccccc2)c1C=Nc1ccc(Cl)cc1	inconclusive [inhibitor, partial curve]	
COCCNC(=O)C(=O)N/N=C(\C)CC(=O)Nc1ccc(Cl)cc1Cl	inconclusive [inhibitor, single point]	
C=CCn1c(-c2ccc(OC)cc2)nc2nc3ccccc3nc21	inconclusive [activator, partial curve]	
N#Cc1c(N)sc2c1CCN(CCc1ccccc1)C2	inconclusive [activator, single point]	
c1csc(-c2cnc3ccccc3n2)c1	inconclusive [activator, partial curve]	
COc1ccc2nc(Cl)c(C#N)cc2c1		inconclusive: 18.4% [activator]
CCc1cccc(NC(=O)CN(c2ccc(OC)cc2)S(=O)(=O)c2c(C)n[nH]c2C)c1	inconclusive [inhibitor, full curve, poor fit]	
O=c1oc2ccccc2n1Cc1ccccc1		inconclusive: 16.3% [activator]
COc1cc([N+](=O)[O-])cc(/C=N/NC(=O)C(C)Nc2ccccc2C)c1O (stereo not drawn)	inconclusive [inhibitor, single point]	
COc1cc(/C=N/NC(=O)C(=O)NCC2CCCO2)ccc1O (stereo not drawn)	inconclusive [inhibitor, full curve, poor fit]	
CCC(=O)N1c2ccccc2NC2=C(C(=O)CCC2)C1c1ccccc1 (stereo not drawn)	inconclusive [inhibitor, single point]	
Cn1c(=O)oc2cc(S(=O)(=O)N3CCCC(C(=O)N4CCc5ccccc5C4)C3)ccc21 (stereo not drawn)	inconclusive [inhibitor, single point]	
Cc1ccc(OCCNC(=O)c2cc(C(=O)NCCOc3ccc(C)cc3)cc([N+](=O)[O-])c2)cc1	inconclusive [inhibitor, partial curve]	
CN(C)c1ccc(C(CNC(=O)c2ccccc2F)c2c[nH]c3ccccc23)cc1 (stereo not drawn)	inconclusive [inhibitor, single point]	
COc1ccc(S(=O)(=O)N2CCOCC2)cc1NC(=O)COc1cccnc1[N+](=O)[O-]	inconclusive [inhibitor, single point]	
